The values that follow come from article PMC4242493.

The list shows a part of the results. The list includes weakly bound sequences.

The target of the assay is MaxL homodimer (UniProt P61244). Description: universal protein-binding microarray (PBM). The following applies: PBS-based mixture, 10 nM His-tagged protein dimer, 2% milk, 200 ng/uL BSA, 50 ng/uL salmon testes DNA, 0.02% TX-100; detection with Alexa 488 anti-His …; high values mean tight binding; most listed sequences are background and not binding sites; double strand, one strand shown.
Sequence of UniProt P61244 (P61244 whole entry): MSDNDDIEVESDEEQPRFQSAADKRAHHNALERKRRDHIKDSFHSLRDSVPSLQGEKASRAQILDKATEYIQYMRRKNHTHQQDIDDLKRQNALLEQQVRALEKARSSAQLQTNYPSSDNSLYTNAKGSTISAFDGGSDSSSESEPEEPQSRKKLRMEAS
For ATTGGTTA, the binding signal (normalized occupancy) came out at 0.0743. The value for CCCCACAC was 0.0866; that for CCCACCTC was 0.0804. To AGATACAT belongs 0.0926. The value for CCAACTAC was 0.0736. With GGGTCAGA, the binding signal (normalized occupancy) was 0.0771. With CGTCAGGA, the binding signal (normalized occupancy) was 0.0702. The value for CAGTTCCG was 0.0661.

For GTCTATAA, the binding signal (normalized occupancy) was determined as 0.0829. The value for CAGGCAAA was 0.0692.

Turning to CTGCCCGA, the binding signal (normalized occupancy) worked out at 0.0697. For ACTAGTGC, the binding signal (normalized occupancy) is 0.0753.

Consider GCATGCTA, for which the binding signal (normalized occupancy) came out at 0.112. The value for CACTGGTC was 0.0687; that for ACCTATGA was 0.0757.

Take ATCTGGTG: the binding signal (normalized occupancy) was determined as 0.0859.

Consider AGAACTTG, for which the binding signal (normalized occupancy) is 0.0725. To AGCATGTA belongs 0.106; to GACACGAA, 0.0712. The value for GGCATCAC was 0.0813. The value for AAAGACAA was 0.0741. Take AACTTGTG: the binding signal (normalized occupancy) was 0.077. The value for AAATGTCG was 0.0766; that for GACCAGAC was 0.0698; that for TTGGAAAA was 0.0772. As for ACTCCCCC, the binding signal (normalized occupancy) amounted to 0.0838.

Regarding AGCTGTAA, the binding signal (normalized occupancy) came to 0.077. As to CCTGGATA, the binding signal (normalized occupancy) stood at 0.0751.

Consider GTGTCTGA, for which the binding signal (normalized occupancy) was determined as 0.0772. The value for GGGTACTA was 0.079; that for CGAGGTGC was 0.0781; that for TAAGACGA was 0.0749. To AATAACCA belongs 0.0799; to CTAGATTA, 0.0757.

As for AGATGTAG, the binding signal (normalized occupancy) is 0.0802.

For the sequence AACGCATA, the binding signal (normalized occupancy) is 0.0871.

Consider CATCGTGA, for which the binding signal (normalized occupancy) is 0.0893. Take AAGCGCTC: the binding signal (normalized occupancy) was found to be 0.0665. For the sequence ACCCCGCG, the binding signal (normalized occupancy) was determined as 0.0744. To ACCGAAGC belongs 0.0707; to ACCTAAGG, 0.0711.

For the sequence CCGTGAAA, the binding signal (normalized occupancy) came out at 0.0774. With GCCCGACA, the binding signal (normalized occupancy) is 0.0707. To AAGACCTG belongs 0.07; to GTACCACA, 0.0798. On to ATTGGGTA, for which the binding signal (normalized occupancy) was found to be 0.0756.

Take CTCTTCTA: the binding signal (normalized occupancy) was 0.07. In the case of AAGCAGCT, the binding signal (normalized occupancy) came to 0.0654.

For the sequence TACATACA, the binding signal (normalized occupancy) was 0.092. With CCAAAATA, the binding signal (normalized occupancy) amounted to 0.0786. Consider ATGAACAT, for which the binding signal (normalized occupancy) was found to be 0.0758. Consider CTCACTGA, for which the binding signal (normalized occupancy) is 0.0737. In the case of CTCATAGA, the binding signal (normalized occupancy) was 0.0761. As to CTAGAAAA, the binding signal (normalized occupancy) turned out to be 0.077. Turning to CTGCGGTA, the binding signal (normalized occupancy) was determined as 0.0717.

ACAAATTC: the binding signal (normalized occupancy) is 0.0766. Regarding AGAAGACG, the binding signal (normalized occupancy) was 0.0689. GAATGGGC: the binding signal (normalized occupancy) came to 0.0791. The value for CATTGTCA was 0.0793; that for ACTGTTTC was 0.0744.

For GACCGCCA, the binding signal (normalized occupancy) came to 0.0723. Consider ATAGTAGC, for which the binding signal (normalized occupancy) was determined as 0.0718. The value for ATTCCGAG was 0.0707; that for AATGGAGT was 0.0783; that for CCGGAAGG was 0.0691.

Turning to AAGTACTG, the binding signal (normalized occupancy) amounted to 0.0763.

ACATTGAC: the binding signal (normalized occupancy) amounted to 0.0853. Take AGTGGCAT: the binding signal (normalized occupancy) turned out to be 0.0792. To CACGGCAC belongs 0.078; to ATAAGTTC, 0.0794. In the case of CCCATATA, the binding signal (normalized occupancy) was found to be 0.0918. Turning to ACCTGTGC, the binding signal (normalized occupancy) came out at 0.0776. The value for CGCTATCA was 0.0737; that for GACTCGGC was 0.0662; that for AGTGTTGG was 0.0818. For the sequence GATTCCGA, the binding signal (normalized occupancy) came out at 0.0705.

GTGCTAAC: the binding signal (normalized occupancy) is 0.0762. For GATTGGTA, the binding signal (normalized occupancy) was 0.0774. With AAATCCAA, the binding signal (normalized occupancy) was 0.0728. As to CCAGCCGA, the binding signal (normalized occupancy) turned out to be 0.0683. CGACTAAG: the binding signal (normalized occupancy) was 0.066. To ACCCTCTA belongs 0.0778.

As to ATACTCAG, the binding signal (normalized occupancy) worked out at 0.0743. The value for CAGATGAC was 0.0794; that for CCAGCATC was 0.0746; that for TAGTGGCA was 0.0787. The value for ATCAGAGA was 0.0723; that for TCCGTCCA was 0.0751; that for CCCCAAGG was 0.072. The value for ACTCCGGC was 0.0713; that for CCAATTTC was 0.0752.

Regarding AAAATACT, the binding signal (normalized occupancy) was determined as 0.0789. Turning to CCGGGGAA, the binding signal (normalized occupancy) worked out at 0.0703. To TAGTGCGA belongs 0.0731; to CAGTCCCG, 0.0662; to CGGGGAGA, 0.0753. The value for AAGAATTA was 0.0778; that for TAAGTGAA was 0.0774. The value for CCCTGATC was 0.0776; that for CTGTGCCC was 0.0714.

CAATTTAG: the binding signal (normalized occupancy) came out at 0.0769. The value for ATCCAATA was 0.0791; that for AACACCGT was 0.0809; that for CTTATAAC was 0.0821. The value for CCTCGTCA was 0.0756. Consider AGAAAAAG, for which the binding signal (normalized occupancy) is 0.0673.

With AACCTTGA, the binding signal (normalized occupancy) amounted to 0.0709. To AAATAACC belongs 0.0785; to CCGGTACG, 0.0719. The value for CGATCGCC was 0.0742; that for CAATTGTC was 0.0746. Consider AAGCCTAG, for which the binding signal (normalized occupancy) is 0.07.

As for GACAGGGC, the binding signal (normalized occupancy) came to 0.0708.

With CGTGTCCC, the binding signal (normalized occupancy) was 0.0839. The value for AATCAATG was 0.0761. To AGCCAATA belongs 0.0753. The value for GACAGGTC was 0.0743; that for CTTCTGAC was 0.0775; that for TCAACACA was 0.0821. On to ATCCACAA, for which the binding signal (normalized occupancy) turned out to be 0.077. For the sequence ACATCTTA, the binding signal (normalized occupancy) stood at 0.0809. As for CCGTGACA, the binding signal (normalized occupancy) was determined as 0.0807. To ACTTCACT belongs 0.0769. GAGGTTTA: the binding signal (normalized occupancy) worked out at 0.073.

Consider ACTCCATG, for which the binding signal (normalized occupancy) amounted to 0.0808. The value for GCTCAACC was 0.0711; that for CTTTCCGA was 0.0681.

TGAGTGAA: the binding signal (normalized occupancy) was 0.0797.

As to ACAGTAGC, the binding signal (normalized occupancy) turned out to be 0.0678. To GGCGTGAA belongs 0.0776; to GACATAGA, 0.0785; to TCGTCGAA, 0.0752. Take ATTGCATC: the binding signal (normalized occupancy) came to 0.0806. In the case of CAAACCTC, the binding signal (normalized occupancy) came to 0.0765. The value for CTCCGAAG was 0.0678.

As for GGCTCGAC, the binding signal (normalized occupancy) was determined as 0.0681. Regarding ATCGACAA, the binding signal (normalized occupancy) is 0.0792.

On to GCCGCCAA, for which the binding signal (normalized occupancy) was 0.0717.

For CCCGTACG, the binding signal (normalized occupancy) was determined as 0.0718.

GCATTCCA: the binding signal (normalized occupancy) worked out at 0.0799. Turning to GATTCACC, the binding signal (normalized occupancy) came to 0.0757. On to GCTAATTA, for which the binding signal (normalized occupancy) came to 0.071. With AGTCTGAC, the binding signal (normalized occupancy) was 0.0742. The value for ATTATGGC was 0.0813; that for GATGAAAA was 0.0785; that for ATTTGGTC was 0.0743. The value for CGTTGTCC was 0.0724; that for CCGGTTAA was 0.0702; that for AGAACGAA was 0.0747. The value for ATGAACTG was 0.0732; that for AGACCAGA was 0.0742; that for CCGTGGAA was 0.0755.

For the sequence ATGTAAAT, the binding signal (normalized occupancy) was 0.0834.

Turning to AACAGGAC, the binding signal (normalized occupancy) amounted to 0.0697. The value for CGAAAGAC was 0.0659; that for CCCGGTCG was 0.068; that for TATAGATA was 0.0879. As to CGTTTGAA, the binding signal (normalized occupancy) worked out at 0.0775. The value for GCAAGGTA was 0.0757; that for ACGCCATA was 0.0812; that for CATTATAA was 0.0866.

As for CCGGGACG, the binding signal (normalized occupancy) was found to be 0.0665. To CCACTGAA belongs 0.0673; to AGCGGTCC, 0.0692; to AGCGCTTC, 0.0703. To ATAAACTG belongs 0.0733; to CAGCTAAC, 0.0725; to AATCTAAA, 0.0727.

With GAATAGGC, the binding signal (normalized occupancy) was determined as 0.0787. The value for CTCAGCCC was 0.0722.

Consider ATAATCCC, for which the binding signal (normalized occupancy) was determined as 0.0883.

Consider GCGCTAGC, for which the binding signal (normalized occupancy) came to 0.0713.
